Out of some 350,000 compounds screened, about 9,900 (2.8%) were called active. The inconclusive results got no clear call from the source; some entries with a clear call stand among them for comparison. Calls follow the shape of the dose curve; as a rule, active = well fitted activation curve with a large enough effect; inconclusive = small, poorly fitted or top-dose-only effect; inactive = no such curve, though single readings can be large or run the other way. Potencies of inconclusive entries are left out as doubtful fits.
Experiment: A quantitative high throughput screen for small molecules that induce DNA re-replication in MCF 10a normal breast cells. Also: nearly all actives have a fitted effect of over 50% in size.
Settings: MCF 10A DNA re-replication, Hoechst nuclear intensity, 48 h; series mostly up to 46.1 µM
Potency is read from the fitted curve at half-maximal effect; tags tell the direction and shape of the fitted curve.

Row | SMILES | Potency
1 | Cc1ccc(-c2noc(CSc3nnnn3-c3ccccc3)n2)cc1 | inconclusive [activator, partial curve, poor fit]
2 | CCCCCCCOC1(c2ccccc2)OC(=O)c2ccccc21 (centres undefined) | inconclusive [activator, partial curve, poor fit]
3 | COc1ccc(-c2cn3cccnc3n2)cc1Br | inactive
4 | Cc1nn(-c2ccccc2)c2sc(C(=O)N3CCOCC3)cc12 | inconclusive [activator, partial curve, poor fit]
5 | O=C1c2ccccc2NC(c2ccc(O)cc2)N1c1ccccc1 (centres undefined) | inconclusive [activator, partial curve, poor fit]
6 | CCOC(=O)C(C)C(C)=O (centres undefined) | inactive
7 | O=C(Nc1cc(Cl)ccc1N1CCCCC1)c1cccs1 | inconclusive [activator, single point]
8 | CCCCC(=O)Nc1cccc(-c2cn3ccccc3n2)c1 | inactive
9 | Cc1ccc(S(=O)(=O)Nc2cccc(-c3cn4ccsc4n3)c2)cc1 | active: 13 µM
10 | Cc1ccc(CSCCNS(=O)(=O)c2ccc(C)cc2)cc1 | inconclusive [activator, single point]
11 | Cc1ccc2nc(-c3ccc(NC(=O)COC(=O)c4cncc(Br)c4)cc3)sc2c1 | inactive
12 | CC(=O)N1CCN(c2ccc(NC(=O)C(C)Oc3ccc(Cl)cc3Cl)cc2)CC1 (centres undefined) | inconclusive [activator, full curve, poor fit]
13 | NC(=O)c1cc([N+](=O)[O-])ccc1NCc1cccnc1 | inactive
14 | O=C(CSc1nnc(C2CC2)n1C1CC1)Nc1cccc(Br)c1 | inactive
15 | Cc1cc(C)nc(N2CCN(c3ncnc4c3cnn4Cc3ccc(Cl)cc3Cl)CC2)n1 | inconclusive [activator, single point]
16 | Cc1ccnc2ccc(-c3nc4ccccc4o3)cc12 | inconclusive [activator, single point]
17 | O=C1NC(=O)/C(=C/c2cccc3ccccc23)S1 | inactive
18 | C/C=C(\C)CN1CCCC(N(C)CCc2ccc(OC)c(OC)c2)C1 (centres undefined) | inconclusive [activator, single point]
19 | N#CCc1nn(-c2ccccc2)c2ncnc(N)c12 | inactive
20 | CCNC(=S)N1CCN(C(=O)c2ccco2)CC1 | inconclusive [activator, full curve, poor fit]
21 | CCN1CCN(S(=O)(=O)c2cc(C)c(OC)cc2C)CC1 | inconclusive [activator, full curve, poor fit]
22 | O=[N+]([O-])c1cc(S(=O)(=O)N2CCCC2)ccc1OCCOc1ccccc1 | inconclusive [activator, single point]
23 | O=C(O)c1ccc(N/N=C/C2=C(N3CCOCC3)C(=C\c3ccccc3)/CC2)cc1 | inconclusive [activator, single point]

Row | SMILES | Potency
24 | Oc1ccc2ccccc2c1CNc1ccc2ccccc2c1 | active: 20.6 µM
25 | COc1ccc(N(CC(=O)N/N=C/c2ccc(-c3ccc([N+](=O)[O-])cc3)o2)S(=O)(=O)c2ccc(C)cc2)cc1Cl | inconclusive [activator, full curve, poor fit]
26 | Cc1c(NC(=O)C(C)N2C(=O)NC3(CCC(C)CC3)C2=O)c(=O)n(-c2ccccc2)n1C (centres undefined) | inconclusive [activator, single point]
27 | Cc1ccccc1CS(=O)(=O)c1nnc([C@H](Cc2ccccc2)NC(=O)OC(C)(C)C)o1 | inconclusive [activator, single point]
28 | Cc1ccc2c(c1)C(=O)N1[C@H]3c4cc(Cl)ccc4OC[C@@H]3[C@H](c3ccccc3)[C@]1(C)C(=O)N2 | active: 10.3 µM
29 | CC(C)CC(=O)NC(=S)N(Cc1ccccc1)Cc1ccccc1 | inactive
30 | COc1ccc(C(=O)COC(=O)C2CCN(c3ccc(C(F)(F)F)cn3)CC2)c(OC)c1 | inactive
31 | CCOc1ccc(CNC(=O)CCCn2ccc3cc(S(=O)(=O)N4CCCC4)ccc32)cc1 | inconclusive [activator, single point]
32 | Cc1nn(CCC#N)c(N)c1C1(O)C(=O)Nc2c(Cl)cc(Cl)cc21 (centres undefined) | inconclusive [activator, single point]
33 | Cc1ccc(C(=O)Nc2nc(-c3ccccc3)c(-c3ccccc3)o2)cc1 | inconclusive [activator, full curve]
34 | Cc1noc(C)c1S(=O)(=O)Nc1ccc2c(c1)C(=O)N([C@H](C)CO)C[C@@H](C)[C@@H](CN(C)Cc1ccc3c(c1)OCO3)O2 | inconclusive [activator, single point]
35 | C/C(=N\O)c1cc(Cl)ccc1O | inactive
36 | Cc1noc(C)c1COc1ccc(C(=O)N2CCN(c3cccc(Cl)c3)CC2)cc1 | inconclusive [activator, single point]
37 | O=[N+]([O-])c1ccc2c(c1)C(=Nc1ccccc1)c1ccccc1-2 | inconclusive [activator, single point]
38 | N#C/C(=N\Nc1cccc([N+](=O)[O-])c1)C(=O)c1ccc(Br)cc1 | inconclusive [activator, full curve, poor fit]
39 | CCN1CC(CN(C)Cc2nc(-c3ccc(OC)c4ccccc34)oc2C)CC1=O (centres undefined) | inconclusive [activator, partial curve, poor fit]
40 | S=c1nc(-c2sccc2OCc2ccc(Cl)cc2Cl)[nH][nH]1 | inactive
41 | CCC(C)(C)c1ccc(OCCCC[n+]2cccc(C)c2C)c(C(C)(C)CC)c1 | inactive
42 | CCN1C(=S)N[C@@H](c2cccc(F)c2)C(C(=O)OC)=C1C | inactive
43 | Cc1cc(C)n(CCNC(=O)C2CCC(=O)N(CC3CCCCC3)C2)n1 (centres undefined) | inactive
44 | [O-][n+]1c2ccccc2cc2ccccc21 | active: 18.4 µM
45 | Cc1ccc(S(=O)(=O)N2CCCC2CNC(=O)C(=O)Nc2ccc(F)cc2)cc1 (centres undefined) | inconclusive [activator, full curve, poor fit]
46 | COc1ccc(CN(C)CC2CCCN(CCc3ccc(Cl)cc3)C2)cc1OC (centres undefined) | inconclusive [activator, partial curve, poor fit]

Row | SMILES | Potency
47 | Cc1c(Cl)cccc1N=C1SCCN1C(=O)CN1C(=O)NC2(CCCC2)C1=O | inconclusive [activator, single point]
48 | COc1ccccc1C(=O)NCCC(=O)Nc1ccc(S(=O)(=O)N2CCC(C)CC2)cc1 | inconclusive [activator, single point]
49 | COc1cc(OC)cc(C(=O)N2CCN(C(=O)c3ccc(OC)c(OC)c3)CC2)c1 | inactive
50 | CC1(C)COC(c2cccn2Cc2ccc(F)cc2Cl)=N1 | inconclusive [activator, single point]
51 | Clc1ccc(-c2nnc(CSc3nnc(-c4cccs4)n3Cc3ccccc3)o2)cc1 | inconclusive [activator, partial curve, poor fit]
52 | COc1ccc(CCNC(=O)C(=O)NCC2OCCN2S(=O)(=O)c2ccc(F)cc2)cc1 (centres undefined) | inactive
53 | CCc1ccc(-c2cc(C)no2)cc1S(=O)(=O)N1CCN(c2ccc(C(C)=O)cc2)CC1 | inconclusive [activator, single point]
54 | CCOc1cc2c(cc1OCC)CN(C(=O)c1cccc(S(=O)(=O)N3CCCC3)c1)CC2 | inactive
55 | Cn1c(=O)c([N+](=O)[O-])c(-n2ccnc2)c2ccccc21 | inconclusive [activator, single point]
56 | c1coc(C2Nc3ccccc3-c3nc4ccccc4n32)c1 (centres undefined) | inconclusive [activator, single point]
57 | COc1cc(OC)cc(C(=O)NC2CC3CCC(C2)N3Cc2ccco2)c1 (centres undefined) | inactive
58 | Cc1ccc(S(=O)(=O)N2CCC3(CC2)OCCN3S(=O)(=O)c2c(C)cc(C)cc2C)cc1 | inconclusive [activator, partial curve, poor fit]
59 | COc1ccc2c(CC(=O)OCC(=O)Nc3ccc(S(N)(=O)=O)cc3)coc2c1 | inconclusive [activator, partial curve, poor fit]
60 | COc1ccc2sc(N3C(=O)C4CC=C(C)CC4C3=O)nc2c1 (centres undefined) | inconclusive [activator, single point]
61 | CCn1c(-c2csc3c2CCC(C)C3)n[nH]c1=S (centres undefined) | inactive
62 | COc1cc(/C=C2/SC(=O)N(Cc3ccccc3)C2=O)ccc1OCc1ccncc1 | inconclusive [activator, single point]
63 | COc1ccc(CN2CCN(C(=O)c3cccc4ccccc34)CC2)cc1OC | active: 0.651 µM
64 | O=C(NCCCCCCNC(=O)OCc1ccccc1)OCc1ccccc1 | inactive
65 | O=C(CN1CCN(C(=O)CNC(=O)c2ccc3c(c2)OCO3)CC1)Nc1ccc(F)cc1 | inconclusive [activator, single point]
66 | COc1cc2c(cc1NC(=O)CN1CCN(S(=O)(=O)c3ccccc3F)CC1)oc1ccccc12 | inconclusive [activator, single point]
67 | CCN(CC)CCN(C(=O)c1c(F)cccc1F)c1nc2cc(C)cc(C)c2s1 | inconclusive [activator, single point]
68 | FC(F)(F)c1cc(-c2ccccc2)nc(NCc2cccs2)n1 | inconclusive [activator, single point]
69 | CCn1nc(C)c(C(=O)Nc2cc(Oc3cc(C)cc(C)c3)cc([N+](=O)[O-])c2)c1C | active: 23.1 µM
